# The supplement of paper PMC3334620
# Over roughly 33,000 sequences, “E-score (-0.5 to 0.5)” has its median near -0.035; the highest 2% begin near 0.34. The list shows a part of the results.
# Biological target: T1, Mot3 (UniProt P54785)
# T1 sequence: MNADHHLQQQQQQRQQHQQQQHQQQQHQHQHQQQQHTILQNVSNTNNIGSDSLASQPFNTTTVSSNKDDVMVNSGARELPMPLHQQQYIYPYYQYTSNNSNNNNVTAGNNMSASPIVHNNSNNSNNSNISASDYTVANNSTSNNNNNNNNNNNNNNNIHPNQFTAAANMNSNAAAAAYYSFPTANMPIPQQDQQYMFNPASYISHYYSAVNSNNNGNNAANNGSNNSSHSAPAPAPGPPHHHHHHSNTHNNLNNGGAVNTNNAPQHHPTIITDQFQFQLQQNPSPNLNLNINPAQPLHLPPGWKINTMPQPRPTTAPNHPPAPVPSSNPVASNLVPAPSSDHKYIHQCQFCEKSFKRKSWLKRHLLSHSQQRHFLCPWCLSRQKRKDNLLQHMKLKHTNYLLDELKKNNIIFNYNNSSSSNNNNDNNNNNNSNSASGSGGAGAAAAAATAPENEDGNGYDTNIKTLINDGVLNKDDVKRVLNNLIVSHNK
# Experiment: PBM E-score (8-mer binding enrichment) (E-score (-0.5 to 0.5)); higher = stronger / more preferred TF binding; most listed sequences are background and not binding sites
# Conditions: protein concentration: 200 nM; construct: GST-full length
# How it was run: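 Bound GST-tagged yeast transcription factors, applied at about 100-200 nM to double-stranded universal all-10-mer Agilent arrays, were detected with fluorescent anti-GST. Scans were normalised with masliner. A modified Wilcoxon-Mann-Whitney statistic, the E-score, was assigned to each ungapped eight-base word pooled with its reverse complement by the Universal PBM Analysis Suite.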
row,Sequence,PBM E-score
1,AGTTCTTG,0.147
2,CACTGCAC,-0.019
3,ATGGTAAA,0.0184
4,CGGAATAA,-0.00613
5,AAGATCGT,-0.0615
6,CTTTTTAC,0.21
7,TGGGTCAA,-0.13
8,CTTTATTA,0.146
9,CGACGACG,-0.218
10,CATCCGCA,-0.192
11,AAACTTAT,0.097
12,AGGCAAGA,0.477
13,AGATCAGC,-0.207
14,CCATTACC,-0.0695
15,ATCTCTTC,-0.041
16,ACTCGCGC,-0.0968
17,CGAAAATA,0.00108
18,GAGAGTTA,-0.0401
19,AGGTCGCC,-0.171
20,AGAGTAGA,0.0558
21,CAAACACA,0.206
22,CAAGCTAG,-0.0555
23,CGCGACGA,-0.161
24,ATGAAGCG,-0.0797
25,ACCGGTTC,-0.148

row,Sequence,PBM E-score
1,CATCTAGC,0.111
2,CACGTTCC,0.179
3,CCAATGGG,-0.321
4,TTTCCAAA,0.0771
5,AGATTACG,0.145
6,TATAATAA,0.164
7,AGACCTTA,-0.167
8,CATACGCA,0.0643
9,AGGACGAC,-0.177
10,AATTTATG,0.16
11,CACGGCCG,-0.0243
12,GATTTTGA,0.103
13,ACTCATGA,-0.128
14,ACCTCACC,-0.223
15,TATATAAA,0.211
16,CATTCTCA,0.0726
17,GTTGATGA,0.0844
18,CCCACCAG,-0.193
19,ATGAGTCA,-0.0561
20,ATATTCAG,0.0181
21,GCACCCCA,-0.132
22,ATGAATTG,0.00768
23,AATCAGGG,-0.271
24,ACGGGACG,-0.0656
25,GTCAGCGA,-0.109

row,Sequence,PBM E-score
1,ACAATCGC,0.0988
2,ACCACGGT,-0.288
3,CCCGTAGA,-0.221
4,ACATGCCC,0.21
5,AGGTCTAA,-0.0392
6,AAAATACT,-0.114
7,AAATATGT,0.268
8,CAAGTCCG,-0.141
9,ACATCCCA,0.0982
10,CAATAGAC,0.0878
11,ATCCCTAC,-0.106
12,GAGAGGGA,-0.318
13,CCGTTAGG,-0.0906
14,AGGCCAAT,0.0294
15,AGCTAACA,0.101
16,GAGAAGCA,-0.0664
17,CTAATAAA,0.174
18,AGGCGAAC,-0.0626
19,GACGCCCA,-0.158
20,AACTAAGG,0.0319
21,CGACCCTC,-0.169
22,GGCTTTGA,-0.144
23,AAGGCGTG,0.0526
24,TGTGAACA,0.215
25,CCAGCCCC,-0.119

row,Sequence,PBM E-score
1,TGGTCAAA,0.0371
2,AATTATGG,-0.0152
3,CATCGTAC,-0.0204
4,GTCGACAC,0.193
5,TACGTAAA,0.31
6,GTGTTGGA,0.177
7,CACCTTAA,0.0232
8,CGGGTCAA,-0.037
9,GCTGCGCA,-0.323
10,AGTTGTAG,0.00177
11,ACGCTCGA,-0.0921
12,ACAAGGGA,0.165
13,CCTTTGCA,0.101
14,GCTAAGTA,0.0427
15,CCGTATTC,0.0799
16,AGCGGCCT,-0.234
17,AGCTGACA,-0.004
18,AAAGGCTA,-0.0308
19,ACCTATTC,0.00762
20,ACCGCACA,-0.261
21,AAGTCCGG,-0.283
22,AAATCGGA,-0.176
23,GTCATTGA,0.0095
24,GATTCTAA,0.0476
25,TAAACTGA,-0.0256

row,Sequence,PBM E-score
1,CACACCGC,0.0639
2,AACATAGG,0.279
3,AGTAAGAG,-0.101
4,ACGTCGGC,0.112
5,CCTCCAAA,-0.0286
6,GCGTCACA,-0.173
7,CGTACTGA,-0.0519
8,ACGACGTC,-0.186
9,CAAGAGAA,0.196
10,CGCCCCTA,-0.101
11,AACAGTAG,0.116
12,CGGACTGA,-0.27
13,GTAACACA,0.253
14,AAAGTCGC,0.146
15,AATCAGAG,-0.146
16,GGACTAAA,-0.0317
17,CGATCGGC,-0.254
18,ATCTATCG,-0.0412
19,AGCAAGTC,-0.217
20,ATAACTGC,-0.0269
21,ATTTTCTG,-0.0419
22,AAGCCCCA,-0.349
23,ACGGAGCT,-0.316
24,AACTAACG,0.0564
25,ACCTGTCT,-0.043

row,Sequence,PBM E-score
1,ACTTAGCT,-0.171
2,ATCTGTAA,0.104
3,CGGCTTTA,-0.0208
4,GCCCCGCA,-0.19
5,ACAGCACA,0.289
6,ACACCCCG,-0.336
7,CTGCTTGC,0.0147
8,CAATTGAG,-0.0334
9,GCCTAGGA,0.131
10,CCCGAAGA,-0.239
11,CCAAACGA,-0.105
12,ATGGGCAG,-0.0342
13,AGTCGACC,-0.0923
14,GCATCCGA,-0.157
15,TACGGCCA,-0.155
16,GCGAGAAC,-0.221
17,CCGCGATC,-0.312
18,CTGGGACC,-0.239
19,AACTCCAG,-0.128
20,GGCTTAGA,-0.0525
21,CTGCTCAA,-0.113
22,AACCATAG,-0.12
23,ACTGTGAC,-0.237
24,GGCAAGCA,0.306
25,CATTCCAC,-0.0436

row,Sequence,PBM E-score
1,GTGATAGA,-0.0161
2,GCAATGAA,0.211
3,AGTTGGCA,0.00785
4,ACTTCACT,0.126
5,ATTTAAAG,0.0192
6,AATAAGGA,0.0872
7,GCGGAAGC,-0.171
8,CCGAGGCG,-0.324
9,TCACGGCA,0.0633
10,CTTCCGTA,0.0741
11,ACGTAATC,0.29
12,ACTATCGG,-0.204
13,CAATGTCA,0.119
14,CGGTGCCC,0.215
15,AATTGAGT,0.0615
16,CTGTAACA,0.182
17,AAAAAAGT,0.0914
18,AAGGTCAT,-0.156
19,ACTCTGTG,-0.0243
20,CCACATCA,-0.0861
21,ATGGATTC,-0.094
22,AACCCCGG,-0.147
23,ACCCCTGA,-0.19
24,TAACACGA,0.402
25,AGTCCTAA,-0.0302

row,Sequence,PBM E-score
1,ACAGTCGG,-0.05
2,CTTAGTTA,0.0912
3,GGATGACA,0.123
4,ATCCAAGG,-0.226
5,ACACACGT,0.286
6,AGCAAAAA,0.0732
7,TGGACTAA,-0.0636
8,CCCTTTGC,0.0681
9,ATTTCGGC,-0.00521
10,AGCCAAGA,-0.143
11,CAGCTGCC,-0.108
12,AGTGTTTA,0.126
13,ACGACGGC,-0.0657
14,CACTACGG,-0.1
15,ACATATAT,0.262
16,TCCGATCA,-0.0505
17,GTCAGTGA,-0.233
18,ATTGGACG,0.00158
19,GTATATAA,0.175
20,AGAGAAAA,-0.0157
21,ACTTTGCC,0.116
22,AGTGACGG,-0.0886
23,AATCGGGC,0.0506
24,ACCTTAAT,0.138
25,CAATTCAA,-0.00242

row,Sequence,PBM E-score
1,CAAGCATG,0.109
2,CTAACGGC,-0.239
3,CATTCGCG,0.0789
4,CGACGGGC,-0.0997
5,AGATAAAG,-0.0787
6,ACAATCCA,0.128
7,AACTTAGC,0.0241
8,ATGACTCG,-0.049
9,ACACGAGC,0.2
10,ATTTAAAT,0.0438
11,GGATTGCC,0.0134
12,ACGGCGAC,-0.249
13,AATTTAGG,0.173
14,AGTGTGAA,0.141
15,AGCGTCCG,-0.116
16,GAATGTTA,0.166
17,ATGCATCG,0.0336
18,AAAGAGAC,-0.166
19,ATCGTAGC,-0.107
